This is an account of results in publication PMC4336329 (PLoS ONE, 2015).

About 14,000 (4.5%) of roughly 310,000 compounds showed an effect of 50% or more. The effect is printed as a negative number. This is one part of the list.
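Note: peak tail current of the secondary pulse compared with the same well before compound.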

In this assay the target is human ether-à-go-go-related gene (hERG) potassium channel (human, UniProt Q12809). The experiment in a line: primary screen, population patch clamp on CHO cells stably expressing hERG.
Sequence of human ether-à-go-go-related gene (hERG) potassium channel (Q12809 whole entry, looked up): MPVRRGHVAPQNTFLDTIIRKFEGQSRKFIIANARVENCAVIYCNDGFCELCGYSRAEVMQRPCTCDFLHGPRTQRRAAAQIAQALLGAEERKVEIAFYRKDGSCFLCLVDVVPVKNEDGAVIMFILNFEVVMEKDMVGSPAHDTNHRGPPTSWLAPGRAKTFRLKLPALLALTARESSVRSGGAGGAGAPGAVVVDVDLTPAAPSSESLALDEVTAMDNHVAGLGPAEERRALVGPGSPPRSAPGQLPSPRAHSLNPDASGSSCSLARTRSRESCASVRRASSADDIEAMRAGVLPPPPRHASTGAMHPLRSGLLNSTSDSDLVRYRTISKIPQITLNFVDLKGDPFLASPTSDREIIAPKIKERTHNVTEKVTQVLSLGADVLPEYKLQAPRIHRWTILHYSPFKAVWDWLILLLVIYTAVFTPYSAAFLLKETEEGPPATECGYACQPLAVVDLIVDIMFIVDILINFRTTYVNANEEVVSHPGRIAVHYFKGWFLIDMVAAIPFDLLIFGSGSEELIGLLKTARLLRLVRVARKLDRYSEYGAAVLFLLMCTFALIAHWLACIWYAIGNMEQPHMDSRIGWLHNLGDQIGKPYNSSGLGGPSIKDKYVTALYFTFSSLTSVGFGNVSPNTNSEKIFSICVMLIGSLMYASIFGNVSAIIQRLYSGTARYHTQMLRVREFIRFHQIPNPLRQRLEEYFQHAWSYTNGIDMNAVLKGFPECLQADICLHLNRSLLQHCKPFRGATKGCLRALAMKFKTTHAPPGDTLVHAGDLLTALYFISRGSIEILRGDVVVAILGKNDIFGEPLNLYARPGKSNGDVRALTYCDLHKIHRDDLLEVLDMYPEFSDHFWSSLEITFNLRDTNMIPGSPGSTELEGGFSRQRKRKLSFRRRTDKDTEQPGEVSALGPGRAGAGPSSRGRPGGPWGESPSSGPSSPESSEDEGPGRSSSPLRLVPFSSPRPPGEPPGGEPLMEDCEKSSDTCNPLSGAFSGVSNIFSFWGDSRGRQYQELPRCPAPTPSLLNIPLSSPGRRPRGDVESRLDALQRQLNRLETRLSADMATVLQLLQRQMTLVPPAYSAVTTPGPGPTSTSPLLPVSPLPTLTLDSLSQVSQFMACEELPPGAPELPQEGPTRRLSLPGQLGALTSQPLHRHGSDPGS
On to `CCOC(=O)c1nc(Nc2ccc(N3CCC(C)CC3)cc2)c2ccccc2n1`, for which the “hERG current change (%, negative = inhibition) at 10uM” value was -17.1%. Under `CCc1nnc(NC(=O)CN2CCN(c3nc(-c4ccccc4)cs3)CC2)s1` stands -11.8%. Under `N#Cc1cn(-c2ccccc2)nc1-c1ccccc1` stands 0.313%. As for `CC(C)C(=O)Nc1ccc(NC(=O)CCc2ccccc2)cn1`, the figure is 18.4%; as for `Cc1ccc(-n2nnnc2Sc2nc([N+](=O)[O-])nn2C)c(C)c1`, -27.6%.

Turning to `CCOC(=O)C1CCN(CCC(=O)Nc2ccc(C)c(C)c2)CC1`, the “hERG current change (%, negative = inhibition) at 10uM” value was -54.2%. As for `CS(=O)(=O)N(CC(=O)N1CCCCCC1)c1ccccc1`, the figure is -3.51%; as for `CCOC(=O)[C@H]1[C@H]2COc3ccc(OC)cc3[C@@H]2N2C(=O)CN(Cc3ccc(OC)cc3)C(=O)[C@@]12C`, -28.9%; as for `COc1ccc(NCc2nnc(SCC(=O)c3ccc(C)cc3)o2)cc1`, -19.1%. Consider `Cc1c(Cl)cccc1NC(=O)CCN1CCC(C(N)=O)CC1`, for which the “hERG current change (%, negative = inhibition) at 10uM” value is recorded as -7.36%. Under `CN(CC(=O)Nc1ccccc1Br)C(=O)CCSc1ccc(F)cc1` stands -34.1%; under `O=C(NCCNC(=O)c1cc(F)cc(F)c1)c1cc(F)cc(F)c1`, 16.5%. Consider `O=C1N=C(N2CCOCC2)S/C1=C\c1ccccc1OS(=O)(=O)c1ccccc1`, for which the “hERG current change (%, negative = inhibition) at 10uM” value stood at 0.61%.

For the molecule `CCCCn1c(O)c(C(CC)=NCCc2ccccc2)c(=O)[nH]c1=O`, the “hERG current change (%, negative = inhibition) at 10uM” value is given as -36.8%. Under `Cc1cccc(C)c1NC(=O)/C(C#N)=C/c1cccs1` stands -6.39%.

In the case of `O=[N+]([O-])c1cccc(S(=O)(=O)NCC2CC3CCC2C3)c1` (stereo not shown), the “hERG current change (%, negative = inhibition) at 10uM” value was 3.6%. As for `COC(=O)CCC(=O)Nc1cc(Cl)cc(Cl)c1`, the figure is 3.72%; as for `Cn1c(NC(=O)/C=C/c2c(F)cccc2Cl)cc(=O)n(C)c1=O`, 16.9%; as for `CC(=O)c1cc2c(cc1NC(=O)c1ccc(Cl)cc1)OCCO2`, 19.5%. Under `Oc1c(Cl)cc(CN2CCOCC2)c2cccnc12` stands -2.08%. With `COc1ccc(CN=C(C)c2c(C(F)(F)F)[nH]n(-c3nc4ccccc4s3)c2=O)cc1`, the “hERG current change (%, negative = inhibition) at 10uM” value came out at 13.5%.

With `CCOC(=O)C1=C(COC(=O)C2CC(=O)N(c3ccc(C)cc3)C2)NC(=O)NC1C` (stereo not shown), the “hERG current change (%, negative = inhibition) at 10uM” value is recorded as -7.55%. As for `COc1cc(C(=O)OCCN2CCCCC2)ccc1O.Cl`, the “hERG current change (%, negative = inhibition) at 10uM” value was determined as 3.87%. `CC1CC(C)CN(C(=O)C(NS(=O)(=O)c2ccc(Br)s2)c2ccccc2)C1` (stereo not shown): the “hERG current change (%, negative = inhibition) at 10uM” value is listed as -5.18%.

`Cc1ccc(C2c3sc(=O)[nH]c3SC3C(=O)NC(=O)C32)cc1` (stereo not shown): the “hERG current change (%, negative = inhibition) at 10uM” value was 2.65%.

For `Cc1ccc(C(CC(=O)N2CCOCC2)c2ccco2)cc1` (stereo not shown), the “hERG current change (%, negative = inhibition) at 10uM” value was 5.91%. In the case of `CCN1C(=O)CSc2ccc(C(=O)OC)cc21`, the “hERG current change (%, negative = inhibition) at 10uM” value is recorded as 13.4%. As for `COc1cccc(/C=C2/Sc3ccc(C(=O)NCCCN4CCCC4)cc3NC2=O)c1`, the “hERG current change (%, negative = inhibition) at 10uM” value is given as -59.8%. `COc1cc(NC(=O)c2cccc3c2C(=O)N(Cc2cccnc2)C3)cc(OC)c1OC`: the “hERG current change (%, negative = inhibition) at 10uM” value is reported as -79.2%. For `O=C(Nc1ccnn1C1CCN(C2CCCC2)CC1)c1ccccc1Cl`, the “hERG current change (%, negative = inhibition) at 10uM” value is -45%. As for `O=[N+]([O-])c1cccc(S(=O)(=O)N2CCCCCC2)c1`, the figure is -15%; as for `Cc1cc2c(c(=O)n1Cc1cccnc1)C(c1cccs1)C(C#N)=C(N)O2` (stereo not shown), 2.28%; as for `Cc1ccnc(NC(=O)CNC(=O)Cc2cccc3ccccc23)c1`, -0.565%.

With `Cl.OC(CN1C2=NCCN2c2ccccc21)c1ccc2c(c1)OCO2` (stereo not shown), the “hERG current change (%, negative = inhibition) at 10uM” value was -63.6%. Under `COc1ccc(NC(=O)Nc2cnccn2)cc1OC` stands 23.8%; under `CC(=O)NCCC(=O)Nc1ccc(C)c(F)c1`, 0.223%. Regarding `O=C(NCc1cccs1)C1CCCN1C(=O)Nc1cccc(F)c1` (stereo not shown), the “hERG current change (%, negative = inhibition) at 10uM” value was found to be 5.9%.

For `COCCNC(=O)C(C)Oc1ccccc1` (stereo not shown), the “hERG current change (%, negative = inhibition) at 10uM” value turned out to be 13.4%. Under `CC(C)CC(=O)c1c[nH]c(C(=O)O)c1` stands 19.9%; under `COc1ccc(CCNC(=O)CSc2ncn[nH]2)cc1`, -8.41%; under `Cn1c(=O)c(C(=O)NCCCc2ccccc2)c(O)c2ccccc21`, 13.9%. Under `Cc1ccc(S(=O)(=O)N/N=C/c2ccc3nccnc3c2)cc1` stands 21.9%; under `COc1ccc(Cl)cc1NC(=S)N(CCN1CCOCC1)C1CCN(C(C)=O)CC1`, 9.46%. On to `CN(Cc1cccs1)C(=O)c1ccc(S(=O)(=O)N2CCCCC2)cc1`, for which the “hERG current change (%, negative = inhibition) at 10uM” value was -18.8%. Under `CC1=CC(=O)C2=C(C)CC[C@@H]3[C@H](OC(=O)[C@H]3C)[C@@H]12` stands -13%; under `COc1ccccc1N(/N=C1\Sc2ccccc2C1=O)C(C)=O`, 2.52%; under `Cc1c(NC(=S)N/N=C/C=C/c2ccccc2)c(=O)n(-c2ccccc2)n1C`, 11.2%. As for `CNC(=O)c1ccc(NC(=O)C2CCN(c3ncnc4sc(C)c(C)c34)CC2)cc1`, the figure is 14.8%; as for `COc1ccccc1N1C(=O)c2ccccc2NC1C(OC)OC` (stereo not shown), 17%. Under `CCOc1ccc2oc(C(=O)N3CCN(Cc4ccccc4)CC3)c(C)c2c1` stands -18.4%; under `CCc1cc(CNC(=O)c2cc(COc3ccc(C)nc3)on2)on1`, 4.58%; under `Cn1ccnc1SCC(=O)c1ccc2ccccc2c1`, 22.3%. Take `O=C(NC1CC2CCCC(C1)N2C(=S)Nc1ccccc1)C1CC1` (stereo not shown): the “hERG current change (%, negative = inhibition) at 10uM” value is 12.7%. Turning to `Cn1c(SCC(=O)Nc2ccccc2F)nnc1-c1cc2ccccc2o1`, the “hERG current change (%, negative = inhibition) at 10uM” value was -14.2%. As for `CC(=O)c1cccc(NC(=O)Cn2c(=O)oc3cc(S(=O)(=O)N4CCCC4)ccc32)c1`, the figure is -4.33%; as for `COC/C=C/C1=CC2=CC(=O)C(C)(OC(=O)c3cnc4ccccc4n3)C(=O)C2=CO1` (stereo not shown), 14.8%; as for `O=C(O)/C=C/c1ccc(OCc2cccc(F)c2)cc1`, 34.5%. As for `Cc1ccc(-n2c(C)cc(C(=O)CSc3nnnn3C)c2C)cc1`, the figure is -27%.
